Measurements taken from PubChem BioAssay (NCATS).
The inconclusive results got no clear call from the source; some entries with a clear call stand among them for comparison. Potencies of inconclusive entries are left out as doubtful fits. Activity calls are given as the source filed them. The call rests on the fitted dose curve; in most records, active means well fitted inhibition curve with a large enough effect; inconclusive means small, poorly fitted or top-dose-only effect; inactive means flat fitted curve, though single readings scatter.

Target: Phospholipid hydroperoxide glutathione peroxidase GPX4 (Homo sapiens) (UniProt P36969)
Experiment: Primary qHTS Assay for Inhibitors of Recombinant Selenoprotein Glutathione Peroxidase 4 (GPX4) (AID 1845192); further: nearly all actives have a fitted effect of over 65% in size
Conditions: recombinant GPX4, GR-coupled NADPH fluorescence, 15 min; series mostly up to 50 µM
Procedure, shortened: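 qHTS, GR-coupled: GPX4 200 nM + cpd 30 min RT → GSH 1 mM, NADPH 0.5 mM, GR 100 nM → CHP 0.5 mM start; fluor 340/450 at t0 and t15 min; no-enzyme wells as control.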
Potency means the concentration at half of the fitted maximal effect; tags describe the fitted curve by direction and shape.

UniProt P36969, sequence (P36969 whole entry, looked up): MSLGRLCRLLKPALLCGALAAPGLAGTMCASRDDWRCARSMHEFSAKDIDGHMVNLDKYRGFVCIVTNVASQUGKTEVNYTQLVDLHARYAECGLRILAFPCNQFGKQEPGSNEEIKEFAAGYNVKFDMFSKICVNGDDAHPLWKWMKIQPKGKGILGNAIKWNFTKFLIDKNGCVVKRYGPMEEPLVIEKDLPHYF

Q: For `C=C[C@@H]1C[C@]1(NC(=O)[C@@H]1C[C@@H](Oc2ncc(OC)c3ccc(Cl)cc23)CN1C(=O)[C@@H](NC(=O)OC(C)(C)C)C(C)(C)C)C(=O)NS(=O)(=O)C1CC1`, which Potency is on record?
A: The Potency was inconclusive [inhibitor, full curve].

Q: `C=C[C@@H]1C[C@]1(NC(=O)[C@@H]1C[C@@H]2CN1C(=O)[C@H](C(C)(C)C)NC(=O)O[C@@H]1C[C@H]1CCCCCc1nc3ccc(OC)cc3nc1O2)C(=O)NS(=O)(=O)C1CC1` was tested. Which Potency did it give?
A: Its Potency is active: 5.62 µM.

Q: How did the Potency turn out when `CC(=O)N1c2ccc(-c3ccc(C(=O)O)cc3)cc2[C@H](Nc2ccc(Cl)cc2)C[C@@H]1C` was run?
A: Its Potency is inconclusive [inhibitor, partial curve, poor fit].
